This is an account of results in patent US12496332B2 (priority 2019, dated 2025).

Molecules are shown by their SMILES.

This assay relates to HIV long terminal repeat-luciferase reporter. The experiment in a line: HIV long terminal repeat-luciferase reporter gene assay (pLTR-Luc). The note with it: treatment with ROS scavenger. As to the method:
For preparation of the luciferase reporter pLTR-Luc, the U3 and R regions of HIV1 promoter 5′-long terminal repeats (−453 to +82) were inserted into pGL3-basic (Promega, Madison, WI). After transfection of pLTR-Luc, experiment was conducted using a Promega luciferase assay kit according to the manufacturer's instructions.
From the result showing that the increase of HIV replication rate (activity of HIV long terminal repeat-luciferase reporter) due to ROS is inhibited by treatment with the representative ROS scavenger NAC, it was confirmed that the ROS produced due to HIV infection plays a major role in viral replication and infection (see FIG. 2, B).
On the technique in general: A reporter such as luciferase makes a cellular process visible.

As for `CC(=O)N[C@@H](CS)C(=O)O` [NAC, N-acetylcysteine], the “increase of HIV replication rate (activity of HIV long terminal repeat-luciferase reporter) due to ROS” value is “inhibited”.
